In all, about 230,000 compounds went through this assay and about 3,600 (1.6%) were called active. The inconclusive results got no clear call from the source; some entries with a clear call stand among them for comparison. Calls come from the whole dose curve; as a rule, active = well fitted inhibition curve with a large enough effect (not every such curve was filed as active); inconclusive = small, poorly fitted or top-dose-only effect, or another doubt; inactive = no such curve, though single readings can be large or run the other way. Potencies beside an inconclusive call are fits to weak or partial responses and may not hold up.
Each compound was assayed against Lysine-specific demethylase 4E (Homo sapiens) (UniProt B2RXH2) (assay: qHTS Assay for Inhibitors of Human Jumonji Domain Containing 2E (JMJD2E)). Conditions: JMJD2E catalytic domain, FDH-coupled NADH fluorescence (FDH is formaldehyde dehydrogenase); series mostly up to 57.1 µM; activity change, negative = inhibition: at the top concentration.
UniProt B2RXH2, sequence (B2RXH2 whole entry, looked up, the tested form may be a part): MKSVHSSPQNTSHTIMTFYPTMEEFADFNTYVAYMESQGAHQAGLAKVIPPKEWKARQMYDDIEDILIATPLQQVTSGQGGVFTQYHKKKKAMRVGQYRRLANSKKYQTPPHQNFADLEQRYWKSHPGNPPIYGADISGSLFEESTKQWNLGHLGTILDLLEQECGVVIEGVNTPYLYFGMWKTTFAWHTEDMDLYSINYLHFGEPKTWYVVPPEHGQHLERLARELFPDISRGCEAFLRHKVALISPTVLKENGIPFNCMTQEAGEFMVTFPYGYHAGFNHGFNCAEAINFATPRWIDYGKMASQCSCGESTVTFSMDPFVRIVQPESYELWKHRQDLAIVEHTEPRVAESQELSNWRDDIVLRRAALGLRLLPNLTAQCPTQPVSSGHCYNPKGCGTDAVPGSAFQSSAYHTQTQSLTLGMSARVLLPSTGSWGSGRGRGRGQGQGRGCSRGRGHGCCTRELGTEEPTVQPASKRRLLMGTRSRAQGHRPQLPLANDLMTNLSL
In the case of `O=[N+]([O-])c1ccc(/C=N/N=C/c2ccc([N+](=O)[O-])o2)o1`, the Potency is reported as active: 14.1 µM. `O=C(Nc1ccc(Cl)c(Cl)c1)Nc1ccccc1C(=O)O` was tested, and the Potency was inconclusive: 25.1 µM [inhibitor, partial curve]. With `Cc1ccc(-c2cc3nc(-c4ccccc4)cc(N4CCC5(CC4)OCCO5)n3n2)cc1` the Potency was inconclusive: 12.6 µM [inhibitor, partial curve]. In the case of `Fc1ccccc1COc1cccc(/C=N/n2cnnc2)c1`, the Potency is reported as inconclusive: 39.8 µM [inhibitor, single point]. For `Cc1noc(C)c1C(=O)NNc1cc(Cl)ccc1Cl`, the “activity change, negative = inhibition” value was inactive: -2.62%. With `COC(=O)c1cnn2c(C(F)(F)F)cc(-c3ccco3)nc12` the Potency was inconclusive: 31.6 µM [inhibitor, partial curve]. For `COCCNC(=O)c1cc(Br)ccc1Cl`, the “activity change, negative = inhibition” value was inactive: 0.0558%. For `CCOC(=O)C1CCCN(c2oc(-c3ccc(F)cc3)nc2C#N)C1` (stereo not drawn), the Potency was inconclusive: 3.16 µM [inhibitor, partial curve]. With `N#Cc1c(NC(=O)CSc2nnc(-c3ccccc3O)n2-c2ccccc2)sc2c1CCCC2` the Potency was inconclusive: 5.62 µM [inhibitor, single point]. In the case of `Fc1cccc(-c2cc3nc4c(c(NCc5ccco5)n3n2)CCCC4)c1`, the Potency is reported as inconclusive: 35.5 µM [inhibitor, partial curve]. For `CC1(C)CC(=O)C(C=Nc2ccc(O)c(N=CC3=C(O)CC(C)(C)CC3=O)c2)=C(O)C1`, the Potency was active: 3.16 µM. With `COc1ccc(Cc2nnc(N/N=C/c3ccccc3O)[nH]c2=O)cc1OC` the Potency was active: 6.31 µM. With `COC(=O)c1ccc(-c2ncc(-c3cccc4ccccc34)o2)cc1` the Potency was inconclusive: 31.6 µM [inhibitor, partial curve]. For `COc1ccc(C2Nc3ccccc3C(=O)N2Cc2ccccc2)cc1COc1ccccn1` (stereo not drawn), the Potency was inconclusive: 20 µM [inhibitor, partial curve]. For `CSc1nc2nccc(-c3ccc4c(c3)OCO4)n2n1`, the Potency was inconclusive: 31.6 µM [inhibitor, partial curve]. In the case of `COc1ccc(-c2nc(CS(=O)CC(=O)NCCC3=CCCCC3)c(C)o2)cc1` (stereo not drawn), the Potency is reported as inconclusive: 39.8 µM [inhibitor, single point]. For `Oc1cccc(C(Nc2nccs2)c2ccc3cccnc3c2O)c1` (stereo not drawn), the Potency was inconclusive: 25.1 µM [inhibitor, single point]. `N#C/C(=C(/O)COc1ccccc1)c1nnc2n1CCCCC2` was tested, and the Potency was inconclusive: 35.5 µM [inhibitor, single point]. For `CC(=O)Nc1ccc(S(=O)(=O)N2CCN(CC3CC4C=CC3C4)CC2)cc1` (stereo not drawn), the Potency was inconclusive: 31.6 µM [inhibitor, single point]. For `N=c1c(C(=O)NCc2ccccc2)cc2c(=O)n3ccccc3nc2n1Cc1ccco1`, the Potency was inconclusive: 31.6 µM [inhibitor, partial curve]. In the case of `CC(C)C1N=C2c3ccccc3N=C(SCC#N)N2C1=O` (stereo not drawn), the Potency is reported as inconclusive: 28.2 µM [inhibitor, partial curve]. With `CCc1cccc(OCCOCCN2CCCC2)c1` the Potency was inconclusive: 28.2 µM [inhibitor, single point]. For `COc1ccc(NN=Nc2nc3c([nH]2)c(=O)n(C)c(=O)n3C)cc1`, the Potency was inconclusive: 39.8 µM [inhibitor, single point]. With `Cc1nc(N2CCN(Cc3ccc4c(c3)OCO4)CC2)c2cc(-c3ccccc3)sc2n1` the Potency was inconclusive: 35.5 µM [inhibitor, partial curve]. With `CN1CCc2c(n(CC(O)CN(CCO)CCO)c3ccccc23)C1=O` (stereo not drawn) the Potency was inconclusive: 31.6 µM [inhibitor, partial curve]. In the case of `N#Cc1c(C(F)(F)F)cc(-c2cccs2)nc1SCc1cccnc1`, the Potency is reported as inconclusive: 31.6 µM [inhibitor, partial curve]. With `CC12c3ccccc3C(c3ccccc31)C1C(=O)N(c3cccnc3)C(=O)C12` (stereo not drawn) the “activity change, negative = inhibition” value was inactive: -6.29%. With `CCOc1ccc2nc(COC(=O)c3ccco3)c(C(C)=O)[n+]([O-])c2c1` the Potency was inconclusive: 35.5 µM [inhibitor, single point]. In the case of `O=C(Nc1nc(-c2ccccn2)cs1)c1cc(Cl)ccc1[N+](=O)[O-]`, the Potency is reported as inconclusive: 35.5 µM [inhibitor, single point]. `CCOCc1nnc(NC(=O)c2cc(Cl)ccc2OC)s1` was tested, and the Potency was inconclusive: 28.2 µM [inhibitor, single point]. For `CCC(=O)Nc1cc2c(cc1C(=O)CC)OCCO2`, the Potency was inconclusive: 35.5 µM [inhibitor, single point]. In the case of `c1ccc(CSc2ccc(-c3ccccn3)nn2)nc1`, the Potency is reported as inconclusive: 39.8 µM [inhibitor, single point]. With `COc1ccc2oc(=O)c(C(=O)N3CCN(c4ccc(F)cc4)CC3)cc2c1` the Potency was inconclusive: 25.1 µM [inhibitor, partial curve]. In the case of `O=C(O)c1cccc(NC(=S)NC(=O)c2ccncc2)c1`, the Potency is reported as inconclusive: 31.6 µM [inhibitor, single point]. For `CCCc1nc(NC(C)=O)c(C#N)c(-c2ccco2)c1CC`, the Potency was inconclusive: 35.5 µM [inhibitor, single point]. `Cc1cccc(/N=C/c2sc3ccccc3c2O)n1` was tested, and the Potency was inconclusive: 39.8 µM [inhibitor, single point]. `CCOC(=O)Cn1c(=O)n(Cc2ccco2)c(=O)c2ccc(C(=O)NCCc3ccccc3)cc21` was tested, and the Potency was inconclusive: 28.2 µM [inhibitor, single point]. With `Cc1ccc(Cl)cc1N1CCN(Cc2nc3ccsc3c(=O)[nH]2)CC1` the “activity change, negative = inhibition” value was inactive: -2.75%. For `CCC(O)CNc1nc(SC)nc2sc3c(c12)CCN(C)C3` (stereo not drawn), the Potency was inconclusive: 28.2 µM [inhibitor, partial curve]. In the case of `CN(C)S(=O)(=O)c1ccc(C(=O)Nc2nnc(SCc3cccc(F)c3)s2)cc1`, the Potency is reported as inconclusive: 7.08 µM [inhibitor, single point]. `Cc1ccc(S(=O)(=O)N2C(=O)C(c3ccccc3)SC2=Nc2ccccc2)cc1` (stereo not drawn) was tested, and the “activity change, negative = inhibition” value was inactive: -11.4%. For `Cc1nc(-c2ccc3c(c2)OCO3)cs1`, the “activity change, negative = inhibition” value was inactive: 3.18%. For `NC(=O)c1ccccc1NC(=O)Nc1ccccc1Cl`, the Potency was inconclusive: 25.1 µM [inhibitor, partial curve]. `COC(=O)c1ccc(NC(=O)C2C3C=CC(O3)C2C(=O)O)cc1` (stereo not drawn) was tested, and the “activity change, negative = inhibition” value was inactive: -1.33%. In the case of `COc1ccc(CC(=O)NNc2ncnc3c2cnn3-c2ccc(C)cc2)cc1`, the Potency is reported as inconclusive: 28.2 µM [inhibitor, single point]. For `COCCN(Cc1ccco1)C(=O)Cn1ncc2c(=O)oc3ccccc3c21`, the “activity change, negative = inhibition” value was inactive: -16.5%. With `OCCNc1cnc2ccccc2n1` the Potency was inconclusive: 31.6 µM [inhibitor, partial curve]. `FC(F)(F)c1cc(-c2cccs2)nc2cc(-c3cccs3)nn12` was tested, and the Potency was inconclusive: 35.5 µM [inhibitor, single point]. With `CC1(C)Cc2nc3oc4c(NCCCN5CCOCC5)ncnc4c3cc2CO1` the Potency was inconclusive: 28.2 µM [inhibitor, partial curve]. In the case of `CCCCC1=CC2=CC(=O)C(C)(OC(=O)CC)C(=O)C2=CN1CC(C)C` (stereo not drawn), the Potency is reported as inconclusive: 31.6 µM [inhibitor, single point]. `CCOC(=O)CCS(=O)(=O)c1nc(-c2ccccc2)cc(C(F)(F)F)n1` was tested, and the “activity change, negative = inhibition” value was inactive: -25.1%. For `O=C(Nc1ccccc1C(=O)OCC(=O)c1c[nH]c2ccccc12)c1ccco1`, the Potency was inconclusive: 35.5 µM [inhibitor, single point]. `O=C(O)CCCN1C(=O)/C(=C/c2ccc(-c3nc4ccccc4s3)o2)SC1=S` was tested, and the “activity change, negative = inhibition” value was inactive: -2.33%. In the case of `Cc1nc(/C=C\C(=O)O)c2cc(C)oc2n1`, the Potency is reported as inconclusive: 28.2 µM [inhibitor, partial curve]. With `OCCN(Cc1ccccc1)CC1CC=CCC1` (stereo not drawn) the Potency was inconclusive: 25.1 µM [inhibitor, single point]. For `CCOc1cccc(-c2nc3cc(C)ccc3o2)c1`, the Potency was inconclusive: 35.5 µM [inhibitor, single point]. `COC(=O)/C(=C/Nc1cccc2ccccc12)[N+](=O)[O-]` was tested, and the Potency was inconclusive: 39.8 µM [inhibitor, partial curve]. For `CC(=O)N1CCC2(CC1)CC(=O)c1cc(OCC(=O)N3CCCC3)ccc1O2`, the Potency was inconclusive: 8.91 µM [inhibitor, partial curve]. For `COCCCN=C(c1ccco1)n1c(=S)nc(-c2ccco2)n(CCCOC)c1=S`, the Potency was inconclusive: 39.8 µM [inhibitor, single point]. With `CCn1c(-c2ccccc2SC)n[nH]c1=S` the Potency was inconclusive: 35.5 µM [inhibitor, single point]. In the case of `COc1cc([C@@H]2[C@H]3CN(C)CC=C3C(C#N)=C(N)C2(C#N)C#N)cc2c1OCO2`, the Potency is reported as inconclusive: 35.5 µM [inhibitor, single point]. `Cc1cccc(NC(=S)NC(NC(=O)c2ccco2)C(Cl)(Cl)Cl)c1` (stereo not drawn) was tested, and the “activity change, negative = inhibition” value was inactive: -0.795%. In the case of `CCNC(=S)N1CCN(S(=O)(=O)c2cccc(C(F)(F)F)c2)CC1`, the “activity change, negative = inhibition” value is reported as inactive: -0.0901%. For `COc1cc2c(cc1NC(=O)COC(=O)[C@@H](NC(=O)c1ccccc1)C(C)C)oc1ccccc12`, the Potency was inconclusive: 28.2 µM [inhibitor, partial curve]. For `Cc1ccc(Nc2cc(C)nn2-c2nc(C)cc(=O)[nH]2)cc1`, the Potency was inconclusive: 31.6 µM [inhibitor, single point]. For `CCN1CCN(Cc2cc(=O)oc3ccc(C)cc23)CC1`, the Potency was inconclusive: 39.8 µM [inhibitor, single point]. In the case of `COc1ccc(/C=C2/N=C(SCC(=O)Nc3cc(C)on3)N(c3ccccc3)C2=O)cc1`, the Potency is reported as inconclusive: 39.8 µM [inhibitor, single point]. With `Cc1ccc(/C=N/Nc2ccnc3cc(Cl)ccc23)c(C)c1` the Potency was inconclusive: 17.8 µM [inhibitor, partial curve].

— PubChem BioAssay AID2147 (National Center for Advancing Translational Sciences (NCATS), 2009)
Note: nearly all actives have a fitted effect of over 50% in size.
Potency is the fitted concentration of half-maximal effect; tags give direction and shape of the fitted curve.
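Throughout, for activity change, negative = inhibition: 0% = wells with enzyme and -100% = buffer wells without enzyme.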
